# Hit rate of the full screen: of about 1,900 compounds, about 40 (2%) showed an effect of 50% or more. Some of the results follow.
# Molecular target: human SGLT1 (hSGLT1) (human, UniProt P13866)
# Experiment: primary screen, percent of control activity; higher = less effect of the substance
# Design: single well
# Details: 50 µM
# Method in brief: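 Single-point screen at 50 µmol/L in CHO-hSGLT1 cells, with 160 µmol/L 1-NBD-glucose in glucose-free DMEM for 90 min at 37°C. Fluorescence from isopropanol extracts was calibrated, and CHO wild-type uptake was subtracted. Data are percent of uptake without compound.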
row,Compound,NORMALIZED SGLT1 ACTIVITY (%)
1,CCCN(CCC)S(=O)(=O)c1ccc(C(=O)O)cc1,105
2,N[C@@H](C(=O)O)[C@@H](O)[C@H](O)[C@H](O)CO,89
3,COc1cc([C@@H]2c3cc4c(cc3[C@@H](O[C@@H]3O[C@@H]5CO[C@@H](C)O[C@H]5[C@H](O)[C@H]3O)[C@H]3COC(=O)[C@H]23)OCO4)cc(OC)c1O,139
4,C[N+]1(C)[C@@H]2C[C@@H](OC(=O)[C@H](CO)c3ccccc3)C[C@H]1[C@@H]1O[C@@H]12.[Br-],103
5,Cc1ccc(O)cc1,104
6,CCOC(=O)C1=C[C@]2(CC)CCCN3CCc4c(n1c1ccccc41)[C@@H]32,90
7,CN/C(=C\[N+](=O)[O-])NCCSCc1ccc(CN(C)C)o1.Cl,106
8,Cl.N=c1ccn2c(n1)O[C@@H]1[C@@H](O)[C@H](CO)O[C@@H]12,94
9,CO[C@@H]1[C@@H](OC(N)=O)[C@@H](O)[C@H](Oc2ccc3c([O-])c(NC(=O)c4ccc(O)c(CC=C(C)C)c4)c(=O)oc3c2C)OC1(C)C.[Na+],109
10,O=C(O)c1cc(O)c2ccccc2n1,97
11,COc1ccc(-c2cc(=O)c3c(O)c(OC)c(OC)cc3o2)cc1O,91
12,O=[N+]([O-])c1ccc(O)c([N+](=O)[O-])c1,145
13,NC(=O)CS(=O)C(c1ccccc1)c1ccccc1 (stereo not shown),89
14,CCC(=O)O[C@]1(C(=O)CCl)[C@@H](C)C[C@H]2[C@@H]3CCC4=CC(=O)C=C[C@]4(C)[C@@]3(F)[C@@H](O)C[C@@]21C,213
15,CC(=O)C1CCC2C3CCC4C[C@H](O)CCC4(C)C3C[C@H](O)C12C (stereo partly shown),123
16,ClC1=C(Cl)C2(Cl)C3C4C=CC(C4)C3C1(Cl)C2(Cl)Cl (stereo not shown),96
17,COc1ccc(C[C@H]2NC[C@H](O)[C@H]2OC(C)=O)cc1,143
18,O=C1CN(/N=C/c2ccc([N+](=O)[O-])o2)C(=O)N1,159
19,CCC(=O)O[C@H]1[C@H](O[C@@H]2[C@@H](C)[C@H](O[C@H]3C[C@@](C)(OC)[C@@H](O)[C@H](C)O3)[C@@H](C)C(=O)O[C@H](CC)[C@@](C)(O)[C@H](O)[C@@H](C)C(=O)[C@H](C)C[C@@]2(C)O)O[C@H](C)C[C@@H]1N(C)C.CCCCCCCCCCCCOS(=O)(=O)O,143
20,CCc1cccc(CC)c1N(COC)C(=O)CCl,88
21,CC12CCC(=O)C=C1CCC1C2[C@@H](O)CC2(C)C1CC[C@]2(O)C(=O)COP(=O)([O-])[O-].CC[NH+](CC)CC.CC[NH+](CC)CC (stereo partly shown),125

row,Compound,NORMALIZED SGLT1 ACTIVITY (%)
1,CCOC(=O)C(Cc1ccc(O)cc1)NC(C)=O (stereo not shown),138
2,CCCCCC(=O)Cc1cc(O)cc(O)c1C(=O)Oc1cc(CC(=O)CCCCC)c(C(=O)O)c(OC)c1,215
3,COc1cc2c(cc1OC)-c1c(oc3c4c(ccc3c1=O)OC(C(C)C)C4)CO2 (stereo not shown),120
4,CCOP(=S)(OCC)SCCSCC,77
5,COc1ccc2ccc(=O)oc2c1,130
6,C=CCc1ccc2c(c1)OCO2,105
7,CC(=O)O[C@H]1CC[C@@]2(C)[C@@H](CC[C@@H]3[C@@H]2CC(=O)[C@]2(C)[C@@H]4[C@H](C[C@@H]32)O[C@]2(CC[C@@H](C)CO2)[C@H]4C)C1,116
8,CCOC(=O)C1=C(C)NC(C)=C(C(=O)OC)C1c1cccc([N+](=O)[O-])c1 (stereo not shown),112
9,COc1ccc(Cc2nccc3cc(OC)c(OC)cc23)cc1OC.Cl,312
10,NCC[C@H](O)C(=O)N[C@@H]1C[C@H](N)[C@@H](O[C@H]2O[C@H](CN)[C@@H](O)[C@H](O)[C@H]2O)[C@H](O)[C@H]1O[C@H]1O[C@H](CO)[C@@H](O)[C@H](N)[C@H]1O.O=S(=O)(O)O.O=S(=O)(O)O,80
11,CCC1(c2ccc(N)cc2)CCC(=O)NC1=O (stereo not shown),108
12,COc1c(-c2coc3cc4c(cc3c2=O)CC(O)C(C)(C)O4)ccc2c1C=CC(C)(C)O2 (stereo not shown),280
13,C1CNCCN1,132
14,NC(Cn1ccc(=O)c(O)c1)C(=O)O (stereo not shown),110
15,C[C@@H]1O[C@@H](OC[C@H]2OC(Oc3c(-c4ccc(O)c(O)c4)oc4cc(O)cc(O)c4c3=O)[C@H](O)[C@@H](O)[C@@H]2O)[C@H](O)[C@H](O)[C@H]1O (stereo partly shown),104
16,Cc1cc(=O)n(-c2ccccc2)n1C,118
17,C=C1C(C2(C)C=CC(=O)C(C)(C)C2CC(=O)OC)CC[C@@]2(C)[C@H](c3ccoc3)OC(=O)C3OC132 (stereo partly shown),86
18,CC[C@H](C)C(=O)O[C@H]1CCC=C2C=C[C@H](C)[C@H](CC[C@@H]3C[C@@H](O)CC(=O)O3)[C@H]21,109
19,COc1c(CC(=O)c2cc3c(cc2O)OC(C)(C)C(O)C3)ccc2c1C=CC(C)(C)O2 (stereo not shown),333
20,CC1(C)CC2C1CCC1(C)OC1CCC2(C)O (stereo not shown),128
21,CC(=O)C1CC[C@H]2C3CC[C@H]4C[C@H](O)CC[C@]4(C)C3CC[C@]12C (stereo partly shown),107

row,Compound,NORMALIZED SGLT1 ACTIVITY (%)
1,NCC(O)CC(=O)O (stereo not shown),105
2,O=C1c2ccccc2C(=O)c2c1ccc(O)c2O,164
3,COC(=O)C[C@H]1C(C)(C)C(=O)[C@@H]2CC3=C4CC(=O)O[C@@H](c5ccoc5)[C@]4(C)CCC3[C@@]1(C)C2=O (stereo partly shown),117
4,CN(C)CCCN1c2ccccc2Sc2ccc(C(F)(F)F)cc21.Cl,62
5,COc1cc2c(c(OC)c1OC)-c1ccc(OC)c(=O)cc1[C@@H](NC(C)=O)CC2,104
6,CN1CCC(OC(c2ccccc2)c2ccccc2)CC1.Cl,63
7,O.O=C(O)[C@@H]1[C@H]2C[C@H]3c4[nH]c5ccccc5c4CCN3C[C@@H]2CC[C@@H]1O,96
8,O=c1[nH]c2ccccc2n1C1CCN(CCCC(c2ccc(F)cc2)c2ccc(F)cc2)CC1,101
9,CC1(C)C2CC(=O)[C@]3(C)C(CC[C@@]4(C)[C@H](c5ccoc5)OC(=O)[C@H]5O[C@]543)[C@@]2(C)C=C[C@@H]1O (stereo partly shown),158
10,CC(=O)Oc1cccc2c1C(=O)c1c(OC(C)=O)cc(C(=O)O)cc1C2=O,124
11,COc1ccc(-c2c(O)c3c(OC)c4c(cc3oc2=O)OC(C)(C)CC4)cc1,183
12,C[CH2][Hg][S]c1ccccc1C(=O)[O-].[Na+],348
13,NC(C(=O)O)C(O)C(=O)O (stereo not shown),98
14,CCC(=O)NCC[C@@H]1CCc2ccc3c(c21)CCO3,87
15,Cc1cccc(N(C)C(=S)Oc2ccc3ccccc3c2)c1,122
16,CC(C)=CCCC1(C)C=Cc2c(O)c3c(c(CC=C(C)C)c2O1)OC12C(=CCCC1C(C)(C)O[C@@]2(C/C=C(\C)C(=O)O)C(=O)O)C3=O (stereo partly shown),39
17,Nc1nc(N)c2nc(-c3ccccc3)c(N)nc2n1,205
18,COc1cc(C(C)=O)cc(OC)c1O,144
19,CC(CCC(=O)O)[C@H]1CCC2C3CC[C@@H]4C[C@H](O)CC[C@]4(C)C3CC[C@@]21C (stereo partly shown),361
20,COC(=O)C1=CO[C@@H](O[C@@H]2O[C@H](CO)[C@@H](O)[C@H](O)[C@H]2O)[C@@H]2[C@@H](C)[C@@H](O)C[C@H]12,94
21,COC(=O)CC[C@@H](C)[C@H]1CC[C@H]2[C@@H]3CC[C@@H]4C[C@H](O)CC[C@]4(C)[C@H]3C[C@H](O)[C@]12C,231

row,Compound,NORMALIZED SGLT1 ACTIVITY (%)
1,CCCCCCNC(=O)n1cc(F)c(=O)[nH]c1=O,86
2,CN1CCCN=C1COC(=O)C(O)(c1ccccc1)C1CCCCC1.Cl (stereo not shown),43
3,Cl.OC(CCN1CCCCC1)(c1ccccc1)C1CCCCC1 (stereo not shown),69
4,Oc1cc(O)c2c(c1)O[C@H](c1cc(O)c(O)c(O)c1)[C@H](O)[C@H]2c1c(O)cc(O)c2c1O[C@H](c1cc(O)c(O)c(O)c1)[C@H](O)[C@H]2c1c(O)cc(O)c2c1O[C@H](c1cc(O)c(O)c(O)c1)[C@H](O)C2,120
5,CCCCOc1ccc(OCCCN2CCOCC2)cc1.Cl,98
6,CC(C)C(C)/C=C/C(C)C1CCC2C3=CC=C4CC(O)CCC4(C)C3CCC21C (stereo not shown),303
7,Cc1cccc(C)c1NC1=NCCCS1,68
8,CCCCCCCCCCCCC[N+](C)(C)Cc1ccccc1.[Cl-],40
9,Nc1ccc(S(=O)(=O)NC(=O)c2ccccc2)cc1,100
10,O=C(O[C@@H]1Cc2c(O)cc(O)cc2O[C@@H]1c1cc(O)c(O)c(O)c1-c1c([C@H]2Oc3cc(O)cc(O)c3C[C@H]2OC(=O)c2cc(O)c(O)c(O)c2)cc(O)c(O)c1O)c1cc(O)c(O)c(O)c1,99
11,CC(=O)O[C@]1(C)CC[C@@]23C[C@@H]1C(C)(C)[C@@H]2CC[C@H]3C,113
12,CCN1CCN(C(=O)N[C@@H](C(=O)N[C@@H]2C(=O)N3C(C(=O)O)=C(CSc4nnnn4C)CS[C@H]23)c2ccc(O)cc2)C(=O)C1=O,88
13,CO[C@@]12[C@H](COC(N)=O)C3=C(C(=O)C(C)=C(N)C3=O)N1C[C@@H]1N[C@@H]12,82
14,CC1=Nc2ccc(Cl)cc2S(=O)(=O)N1,208
15,C=C[C@H]1CN2CC[C@H]1C[C@@H]2[C@H](O)c1ccnc2ccccc12,81
16,O=C([O-])c1cc2cc(Cc3cccnc3)ccc2o1.[Na+],96
17,Cc1onc(-c2c(Cl)cccc2Cl)c1C(=O)N[C@@H]1C(=O)N2[C@@H]1SC(C)(C)[C@@H]2C(=O)[O-].[Na+],92
18,CCN(CCCCOC(=O)c1ccc(OC)c(OC)c1)C(C)Cc1ccc(OC)cc1.Cl (stereo not shown),76
19,Cc1nnc(NS(=O)(=O)c2ccc(N)cc2)s1,116

# Source: paper PMC6664820, “Novel natural and synthetic inhibitors of solute carriers SGLT1 and SGLT2” (Pharmacology Research & Perspectives, 2019)
